Out of some 350,000 compounds screened, about 9,900 (2.8%) were called active. The shares of active, inactive and inconclusive entries below differ from those in the screen. The call rests on the fitted dose curve; in most records, active means well fitted activation curve with a large enough effect; inconclusive means small, poorly fitted or top-dose-only effect; inactive means no such curve, though single readings can be large or run the other way. Potencies of inconclusive entries are left out as doubtful fits.
assay: A quantitative high throughput screen for small molecules that induce DNA re-replication in MCF 10a normal breast cells.; further: nearly all actives have a fitted effect of over 50% in size; on activity, positive = re-replication: % of control where 0% means no effect; details: MCF 10A DNA re-replication, Hoechst nuclear intensity, 48 h; activity, positive = re-replication: at 46.1 µM (top of the series)
Potency means the concentration at half of the fitted maximal effect; tags describe the fitted curve by direction and shape.

Row | Compound | Potency | activity, positive = re-replication
1 | COc1cc(OC)cc(-c2cc3ccc(F)cc3cn2)c1 | inconclusive [activator, full curve, poor fit] | 
2 | Cc1ccc(C(=O)CN(C(=O)c2ccc(Cl)c(Cl)c2)N2C(=O)C3C4C=CC(C4)C3C2=O)cc1 (configuration not stated) | inconclusive [activator, partial curve, poor fit] | 
3 | CCOC(=O)CSc1c(-c2cccs2)[nH]c2ccccc12 | active: 23.1 µM | 
4 | CCCCCCCNC1=CC(=O)CC(c2ccccc2)C1 (configuration not stated) | active: 18.4 µM | 
5 | Cc1ccccc1-c1noc(C23CC4CC(CC(C4)C2)C3)n1 | inconclusive [activator, single point] | 
6 | O=C(Nc1ccc(Cl)c(Cl)c1)C1C2C=CC3(O2)C1C(=O)N(CCN1CCCCC1)C3C(=O)NC1CCCCC1 (configuration not stated) | inconclusive [activator, single point] | 
7 | Cc1cc(-c2nnc(SCC(=O)N3C(C)CCCC3C)o2)no1 (configuration not stated) | inconclusive [activator, single point] | 
8 | CCc1ccc(Nc2nnc(SCC(=O)N(C)CC(=O)Nc3ccccc3CC)s2)cc1 | inconclusive [activator, partial curve, poor fit] | 
9 | O=C1CCC(/C=C/c2ccccc2)=NN1Cc1ccc(Cl)c(Cl)c1 | inconclusive [activator, partial curve, poor fit] | 
10 | O=C(Nc1nc2ccc(Cl)cc2s1)[C@@H]1CCCN1C(=O)c1cccs1 | inconclusive [activator, partial curve] | 
11 | CCOC(=O)C1=NN(c2ccccc2)C(=O)/C1=C\c1ccc(N(C)C)cc1 | inconclusive [activator, single point] | 
12 | NS(=O)(=O)c1ccc(NC(=O)c2ccc3c(c2)OCO3)cc1 | inactive | 
13 | CCCCNC(=O)NC1(C(F)(F)F)Oc2ccccc2O1 | inconclusive [activator, single point] | 
14 | CC1CCCN(C(=O)/C(=C/c2ccco2)NC(=O)c2ccccc2)C1 (configuration not stated) | inconclusive [activator, full curve, poor fit] | 
15 | CC(C)N(C(=O)Cn1c(-c2ccccc2Cl)nc2ccccc21)c1ccccc1 | inactive | 
16 | COc1ccc2c(c1)[C@H]1[C@H](CO2)[C@H](c2ccccc2)[C@]2(C)C(=O)Nc3ccc(F)cc3C(=O)N12 | inconclusive [activator, single point] | 
17 | O=C(COC(=O)Cc1ccc(Br)cc1)NC1CC1 | inconclusive [activator, single point] | 
18 | Cc1[nH]n(S(=O)(=O)c2ccccc2)c(=O)c1N=Nc1cccc(Cl)c1 | inconclusive [activator, partial curve, poor fit] | 
19 | COc1ccc(CC2(CO)CCN(Cc3c(C)nn(C(C)C)c3C)CC2)cc1 | inconclusive [activator, partial curve, poor fit] | 
20 | O=C(Cn1cnc2ccccc2c1=O)c1cccs1 | inconclusive [activator, single point] | 
21 | COC(=O)C1CCCN1C(=O)c1cccs1 (configuration not stated) | inconclusive [activator, partial curve, poor fit] | 

Row | Compound | Potency | activity, positive = re-replication
22 | Cc1ccc(C)c(C(=O)COc2ccc(C)nc2[N+](=O)[O-])c1 | inconclusive [activator, single point] | 
23 | Oc1c(C(c2ccccn2)N2CCC(Cc3ccccc3)CC2)cc(Cl)c2cccnc12 (configuration not stated) | active: 15.8 µM | 
24 | CC(C)Cn1c(SCC(=O)N2CCCCC2)nc2ccccc2c1=O | inconclusive [activator, partial curve, poor fit] | 
25 | O/N=C(\Cn1ccnc1)c1ccccc1 | inactive | 
26 | O=C(Nc1nc2ccsc2c(=O)s1)C1CCC1 | inactive | 
27 | O=c1c2ccccc2nnn1CSc1ncnc2ccccc12 | inactive | 
28 | COc1ccc(N(C(=O)c2snc(C(N)=O)c2N)C(C(=O)NCc2ccc(F)cc2)c2ccc(C)o2)c(OC)c1 (configuration not stated) | inconclusive [activator, partial curve, poor fit] | 
29 | O=C(NCc1cccnc1)c1cc(Sc2ccc(F)cc2F)nc2ccccc12 | inconclusive [activator, partial curve, poor fit] | 
30 | CC(=O)c1sc2nc(C)c3c(c2c1N)CCCC3 | active: 18.4 µM | 
31 | Cc1c(Nc2nc3ccccc3nc2NS(=O)(=O)c2cccc(Cl)c2)c(=O)n(-c2ccccc2)n1C |  | inconclusive: 102% [activator]
32 | O=C(NC(=S)NCCc1ccccn1)c1ccco1 | inconclusive [activator, full curve, poor fit] | 
33 | O=C(COC(=O)Cc1ccccc1[N+](=O)[O-])Nc1nnc(-c2ccccc2)o1 | active: 18.4 µM | 
34 | O=Cc1cn(-c2ccccc2)nc1-c1ccc(F)cc1 | inactive | 
35 | N#CC(C(=O)Nc1cccc(Cl)c1)=C1Nc2ccccc2N1 | inconclusive [activator, single point] | 
36 | C1=C(c2sc3ccccc3c2-c2ccc(OCCN3CCOCC3)cc2)CCCC1 | inconclusive [activator, partial curve] | 
37 | COc1ccc(CCNC(=O)c2ccc(N3CCCC3=O)cc2)cc1 | inconclusive [activator, partial curve, poor fit] | 
38 | COc1ccc(Cn2c(=O)[nH]c3cc(C(=O)NC4CCN(Cc5ccccc5)CC4)ccc32)cc1 | inconclusive [activator, single point] | 
39 | CCCCn1c(N)c(-c2nc3ccccc3s2)c2c([N+](=O)[O-])nn(CC)c(=O)c21 | inconclusive [activator, full curve, poor fit] | 
40 | C=C(C)[C@@H]1CC=C(CN2CCN(Cc3ccccc3)CC2)CC1 | inconclusive [activator, single point] | 
41 | CCN(CC)C(=O)CS(=O)CC(=O)Nc1cc(OCCOC)c(Cl)cc1Cl (configuration not stated) | inconclusive [activator, single point] | 
42 | Cc1nn(Cc2ccccc2)c(C)c1NC(=O)CSc1nc(C2CC2)nc2c1cnn2-c1ccccc1 | inconclusive [activator, partial curve, poor fit] | 

— PubChem BioAssay AID624296 (National Center for Advancing Translational Sciences (NCATS), 2012)
